Here are results for 88 compounds from PubChem BioAssay AID1645887 (National Center for Advancing Translational Sciences (NCATS), 2021).

Values joined by “and” are separate entries in the source; they are usually repeats but may differ in a detail not shown here. Equal values may be shown once. In all, about 16,000 compounds went through this assay and about 40 (0.2%) were called active. About 1% were inconclusive and are not listed. Calls follow the shape of the dose curve; as a rule, active = well fitted activation curve with a large enough effect; inconclusive = small, poorly fitted or top-dose-only effect, or another doubt; inactive = no such curve, though single readings can be large or run the other way. The list shows a part of the results.
% is scaled to controls: 0 for no effect and ±100 for the full control effect.

UniProt Q8WZA2, sequence (Q8WZA2 whole entry, looked up): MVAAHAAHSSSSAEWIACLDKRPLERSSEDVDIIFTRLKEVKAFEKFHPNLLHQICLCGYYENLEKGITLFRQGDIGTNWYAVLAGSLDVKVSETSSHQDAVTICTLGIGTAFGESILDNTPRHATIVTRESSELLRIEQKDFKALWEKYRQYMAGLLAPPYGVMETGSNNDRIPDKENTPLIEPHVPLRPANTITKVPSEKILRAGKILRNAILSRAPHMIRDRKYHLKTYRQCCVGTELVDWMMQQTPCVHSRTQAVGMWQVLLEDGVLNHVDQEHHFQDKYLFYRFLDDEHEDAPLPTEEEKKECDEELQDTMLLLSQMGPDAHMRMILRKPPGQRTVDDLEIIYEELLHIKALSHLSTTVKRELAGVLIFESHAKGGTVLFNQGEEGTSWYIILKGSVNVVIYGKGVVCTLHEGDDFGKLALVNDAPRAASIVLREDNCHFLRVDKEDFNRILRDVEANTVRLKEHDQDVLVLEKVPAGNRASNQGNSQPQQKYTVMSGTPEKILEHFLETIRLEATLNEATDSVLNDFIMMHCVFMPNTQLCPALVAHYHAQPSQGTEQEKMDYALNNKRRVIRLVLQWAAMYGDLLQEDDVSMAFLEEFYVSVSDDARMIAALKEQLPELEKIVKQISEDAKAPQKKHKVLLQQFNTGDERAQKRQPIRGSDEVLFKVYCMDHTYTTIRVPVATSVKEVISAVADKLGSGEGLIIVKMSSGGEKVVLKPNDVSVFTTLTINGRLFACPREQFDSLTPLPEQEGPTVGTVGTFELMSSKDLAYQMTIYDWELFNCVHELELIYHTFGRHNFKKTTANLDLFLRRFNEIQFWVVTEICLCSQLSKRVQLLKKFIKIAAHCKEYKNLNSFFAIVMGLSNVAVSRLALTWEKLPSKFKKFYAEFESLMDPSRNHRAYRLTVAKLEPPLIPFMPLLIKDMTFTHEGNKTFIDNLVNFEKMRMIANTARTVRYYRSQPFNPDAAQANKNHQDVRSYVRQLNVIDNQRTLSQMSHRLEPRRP

This experiment addresses Rap guanine nucleotide exchange factor 4 (Homo sapiens) (UniProt Q8WZA2). Briefly: Validation qHTS for agonist of cAMP-regulated guanine nucleotide exchange factor 4 (EPAC2).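 Also: exchange makes BODIPY-GDP fluorescence drop when released from Rap1B; series mostly up to about 150 µM.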 The settings on record: EPAC2 Rap1B BODIPY-GDP exchange, fluorescence; activation: stronger effect = higher value. In a few lines:
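Signal normalized against 6.5 mM cAMP as agonist control. Mix of EPAC2 (100 nM), RAP1B-BODIPY-GDP (250 nM) and GDP (50 uM) was read kinetically at 480/540 nm, every 5 min over 30 min, after 5 min room-temperature incubation with compound.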
Background: Quantitative high-throughput screening tests each substance at several concentrations.
With `CN1CCCC(n2nc(Cc3ccc(Cl)cc3)c3ccccc3c2=O)CC1` (stereo not drawn), the activation was inactive: -11.8%. Regarding `CCCCCCCCN1[C@@H](CC(=O)OCC)c2ccc(C(F)(F)F)cc2S1(=O)=O`, the activation was inactive: -50.2%. In the case of `Cc1ccc(C)c2c(C)ccnc12`, the activation is inactive: -9.37%. The result for `CC(C)[C@@H](COc1ccccc1)N1CCN(Cc2ccccc2)CCC1=O` reads inactive: -33.7%; that for `COc1cccc(CN2Cc3cccc4c3[C@H](C=CC4)CC2=O)c1`, inactive: -7.06%; that for `Cc1cnc2ccccc2c1C`, inactive: -19.8%. The result for `COc1ccc(CN2CCOc3ccc(C(O)c4cccnc4)cc3C2)cc1` (stereo not drawn) reads inactive: -16.3%. Consider `CCCCCCCN1CCC(=O)N([C@H](CO)Cc2ccccc2)CC1`, for which the activation was inactive: -58.2%. With `Nc1nc(-c2ccccc2)c(Br)c(=O)[nH]1`, the activation was inactive: 11.7%. Turning to `NC(N)=N/N=C\c1c(Cl)cccc1Cl`, the activation is inactive: -4.63%. The result for `CCCCCCCN1CCC(=O)N(CCO)CC1` reads inactive: 4.65%; that for `COc1cc(-c2cccnc2)cc2c1OCCN(C(=O)Cc1csc(C)n1)C2`, inactive: -0.405%.

`O[C@@H](c1ccccc1)C1CCN(CCc2ccccc2)CC1`: the activation was inactive: -7.8%.

As for `CCN(CC)CCOc1ccc(/C(=C(\Cl)c2ccccc2)c2ccccc2)cc1`, the activation is inactive: -0.0547% and inactive: 2.6%. With `CC(=O)OCOC(=O)CN(CC(=O)OCOC(C)=O)c1ccccc1OCCOc1ccccc1N(CC(=O)OCOC(C)=O)CC(=O)OCOC(C)=O`, the activation was inactive: -2.6%. The result for `O=[N+]([O-])c1ccc2nc(CO)[nH]c2c1` reads inactive: -9.59%; that for `COc1ccccc1CNc1ncncc1-c1ccccc1Cl`, inactive: -13.8%. The result for `CCNc1ncc2nc(-c3ccc(OC)cc3)c(=O)n(-c3ccc(OC)cc3)c2n1` reads inactive: 0.246%; that for `c1cncc(-c2cncnc2NC2CCNCC2)c1`, inactive: -12.3%. Turning to `NCC1CCC(C(=O)Oc2ccc(CCC(=O)O)cc2)CC1` (stereo not drawn), the activation was inactive: -15.8%. On to `CCC1(C2CCN(C(=O)c3csc(C(C)=O)c3)CC2)NC(=O)N(CCc2scnc2C)C1=O` (stereo not drawn), for which the activation is inactive: -1.67%. Consider `CNc1ccnc(-c2ccccc2OC)n1`, for which the activation is inactive: -23%.

With `CCNc1ncc2nc(CCc3ccccc3)c(=O)n(C)c2n1`, the activation is inactive: -9.4%. On to `C=C1c2c(Cl)ccc(O)c2C(O)=C2C(=O)[C@]3(O)C(O)=C(C(N)=O)C(=O)[C@@H](N(C)C)[C@@H]3[C@@H](O)C12` (stereo partly drawn), for which the activation is inactive: -2.25%. Turning to `NC(=O)N/N=C/c1ccc([N+](=O)[O-])o1`, the activation was inactive: -10.8% and inactive: 9.55% and inactive: 11%. In the case of `O=C(O[C@H]1CN2CCC1CC2)N1CCc2ccccc2[C@@H]1c1ccccc1`, the activation was inactive: -4.55%. As for `C=C1c2cccc(O)c2C(O)=C2C(=O)[C@]3(O)C(O)=C(C(N)=O)C(=O)C(N(C)C)C3C(O)C12` (stereo partly drawn), the activation is inactive: -12.1%. On to `Cc1c(C(=O)NCCCN2CCCC2=O)cnn1-c1ncc2c(n1)-c1ccccc1CC2`, for which the activation is inactive: 4.81%. With `O=C(O)c1[nH]n(-c2ccc(S(=O)(=O)O)cc2)c(=O)c1N=Nc1ccc(S(=O)(=O)O)cc1`, the activation is inactive: -21.8%.

Turning to `COc1ccc(Oc2ncc3ncc(=O)n(Cc4ccc(F)cc4)c3n2)cc1`, the activation was inactive: -8.25%. Regarding `O=C[C@H](O)[C@@H](O)[C@@H](O)[C@H](O)CO`, the activation was inactive: -8.18%. Take `COc1ccc(-n2c(=O)c(-c3cccs3)nc3cnc(N(C)C)nc32)cc1`: the activation was inactive: -14.5%. As to `CC(C)C[C@H](NC(=O)[C@H](CCc1ccccc1)NC(=O)CN1CCOCC1)C(=O)N[C@@H](Cc1ccccc1)C(=O)N[C@@H](CC(C)C)C(=O)[C@@]1(C)CO1`, the activation was inactive: -11%.

With `O=c1ccn([C@@H]2O[C@H](COP(=O)(O)O)[C@@H](O)[C@H]2O)c(=O)[nH]1`, the activation was inactive: -4.23%. Take `N#Cc1cccc(-c2ccc3ncnc(NCc4cccnc4)c3c2)c1`: the activation was inactive: -15.9%.

With `O=S(O)CNc1ccc(S(=O)(=O)c2ccc(NCS(=O)O)cc2)cc1`, the activation is inactive: -12.8%.

For the compound `CC(C)[C@H](N)C(=O)OCCOCn1cnc2c(=O)[nH]c(N)nc21`, the activation was inactive: 17.3%. Take `CC(C)(O)C#Cc1ccc(CN2CCc3nnc(CCNC(=O)c4ccco4)n3CC2)cc1`: the activation is inactive: -4.75%.

Turning to `O=C(CCN1Cc2ccccc2OC(c2ccccc2)C1)N[C@@H]1CS(=O)(=O)C[C@H]1O` (stereo partly drawn), the activation was inactive: -2.36%. Turning to `Brc1c(Br)c(Br)c2n[nH]nc2c1Br`, the activation is inactive: -60.9%. For `Cc1ccc2[nH]nc(C(=O)N3CCOc4ccc(CN5CCc6sccc6C5)cc4C3)c2c1`, the activation is inactive: -20.3%. With `CN(C)C(=N)N=C(N)N`, the activation was inactive: 4.5% and inactive: 4.91%. The result for `CN1CCC(=O)N([C@H](CN=[N+]=[N-])c2ccccc2)CC1` reads inactive: -14.9%; that for `O=C(c1ccncc1)N1CCC2(CCCN(c3ccccc3)C2)CC1`, inactive: 3.06%. With `O=c1c(-c2ccccc2)nc2cnc(Oc3ccccc3)nc2n1C1CC1`, the activation was inactive: 1.5%. Regarding `O=c1cnc2cnc(Nc3ccccc3)nc2n1C[C@H]1CCCO1`, the activation was inactive: -4.56%. `CCS(=O)(=O)N(C)[C@@H]1c2cc(C#N)ccc2OC(C)(C)[C@H]1O`: the activation is inactive: -14.8% and inactive: -7.63%. As for `O=Nc1c(-c2c(O)[nH]c3cc(Br)ccc23)[nH]c2ccccc12`, the activation was inactive: -6.43%. The result for `O=C1c2ccccc2-n2c1nc1ccccc1c2=O` reads inactive: -10.7%; that for `O=C(NCc1ccncc1)c1cnn(-c2ncc3c(n2)-c2ccccc2CC3)c1C1CC1`, inactive: -5.81%. In the case of `O=C(NCO)c1cccnc1`, the activation was inactive: -4.55%. Regarding `CO[C@@H]1[C@@H](OC(N)=O)[C@@H](O)[C@H](Oc2ccc3c(O)c(NC(=O)c4ccc(O)c(CC=C(C)C)c4)c(=O)oc3c2C)OC1(C)C`, the activation was inactive: -10.7%. As to `NC1=NCCCC1`, the activation is inactive: -12.1%.

As to `COCC(=O)Nc1cc(C(=O)N2CCCC(c3ccccc3)CC2)c2c(c1)nc(-c1ccncc1)n2C` (stereo not drawn), the activation was inactive: -5.52%. The result for `CSC(N)=NCCCC(N)C(=O)O` (stereo not drawn) reads inactive: -12.7%; that for `Cc1noc(C)c1C(=O)N1CCC[C@@]2(CCN(Cc3nccs3)C2)C1`, inactive: -2.88%.

Consider `CCCc1c(OCCCCc2nn[nH]n2)ccc(C(C)=O)c1O`, for which the activation is inactive: -10.3% and inactive: -6.17% and inactive: -32.3%. Take `CC(=O)Oc1cccc(O)c1`: the activation was inactive: -9.46%. With `CCOC(=O)c1c[nH]c2nc(C)ccc2c1=O`, the activation is inactive: -19%.

As to `Cc1occc1C(=O)Nc1cccc(-c2nc(CNC(=O)c3ccc(N4CCCCC4)cc3)c(C)o2)c1`, the activation is inactive: -4.85%. The result for `O=C1CCNCCN1[C@H](CO)c1ccccc1` reads inactive: -16.1%. The result for `CCOC(=O)C[C@H]1c2cc(F)ccc2S(=O)(=O)N1c1cccc(OC)c1` reads inactive: -13.1%. As for `CSc1nc(C(=O)N2CCc3c(cnc(C)c3CNC(=O)c3ccc4c(c3)OCO4)C2)cs1`, the activation is inactive: 0.51%. As to `O=C(O)CC[C@@H](C(=O)O)N1C(=O)c2ccccc2C1=O`, the activation was inactive: -41.6%. For the compound `CCN(CC)C1CCN(C(=O)c2cnn(-c3nccc(-c4ccccc4OC)n3)c2-c2ccco2)C1` (stereo not drawn), the activation is inactive: -3.49%. The result for `COc1ccc(OC)cc1` reads inactive: -8.62%; that for `OCCN1CCN(CCCN2c3ccccc3Sc3ccc(Cl)cc32)CC1`, inactive: -21% and inactive: 21.8% and inactive: -61.1%; that for `COc1ccc(-c2nc3cnc(Oc4ccccc4)nc3n(C3CC3)c2=O)cc1`, inactive: -12.7%. On to `CN1CCCC2(CCN(C(=O)c3cccc(F)c3)CC2)C1`, for which the activation was inactive: -10.5%. The result for `CC(C)C(C)(C)C(C)(C)C(C)(C)S` reads inactive: 5.2%; that for `c1ccc(CNc2nc(-c3ccoc3)nc3ccccc23)cc1`, inactive: 4.71%. Take `CN(C)CCc1c[nH]c2ccc(Cn3cncn3)cc12`: the activation is inactive: -17.7%. `COc1ccc2c(c1)c1c3n2CCN(C)C3=NCC1`: the activation was inactive: -1.93%. As to `CC(C)(C)[C@@H]1CCC(=O)N(CC[C@H](Sc2ccc(Br)cc2)c2ccccc2)CC1`, the activation is inactive: -20.5%. For the compound `COc1ccc2[nH]c(C(O)C(O)c3nc4c(OC)c(OC)ccc4[nH]3)nc2c1OC` (stereo not drawn), the activation was inactive: -4.69%. The result for `Cc1cnc(-n2ncc(C(=O)NCCc3cccnc3)c2C)nc1-c1cccs1` reads inactive: -6.85%. The result for `OC[C@H]1O[C@@H](Oc2ccc(O)cc2)[C@H](O)[C@@H](O)[C@@H]1O` reads inactive: -12.7%; that for `Nc1ccc(S(=O)(=O)c2ccc(N)cc2)cc1`, inactive: 13.8% and inactive: -34.9%.

As to `CCOC(=O)C(CCc1ccccc1)NC(C)C(=O)N1C(C(=O)O)CC2CCCC21` (stereo not drawn), the activation was inactive: -11.3%. As to `COC(=O)c1ccc(-c2cccc3c2OC(CNC(=O)c2ccc4c(c2)OCCO4)C3)nc1` (stereo not drawn), the activation was inactive: 2.2%. On to `COc1cc(/C=C/C(=O)O)cc(OC)c1OC`, for which the activation is inactive: 2.54%. Take `Oc1cc(-c2cccs2)cc2c1OCCN(Cc1cn[nH]c1-c1ccc(Cl)cc1)C2`: the activation is inactive: -2.13%. The result for `CC(=O)/C=C1\C(=O)N(C)c2ccccc21` reads inactive: -43.8%; that for `NCCCCCCCCCCN`, inactive: -24.8%. As for `Cc1ccnn1CC(=O)N1CCOc2c(cc(-c3csc4ccccc34)cc2OC2CCOC2)C1` (stereo not drawn), the activation was inactive: 2.7%.

As for `COc1ccccc1C(=O)N1CCOc2ccc(CN3CCN(Cc4ccccn4)CC3)cc2C1`, the activation is inactive: -9.53%. For `COc1ccc(NC(=O)N2CCCC3(CCN(C(=O)c4ccc(OC)cc4)CC3)C2)cc1`, the activation is inactive: -11.6%. As to `N[C@@H](C(=O)O)c1ccc(C(=O)O)c(C(=O)O)c1`, the activation was inactive: -2.3% [middle of 4 runs].
